The values that follow come from ChEMBL document CHEMBL4888484, “Replenishing the malaria drug discovery pipeline: Screening and hit evaluation of the MMV Hit Generation Library 1 (HGL1) against asexual blood stage Plasmodium falciparum ,using a nano luciferase reporter read-out” (2022).

Hit rate of the full screen: of about 150,000 compounds, about 540 (0.36%) showed an effect of 50% or more. Some of the results follow.

This assay has as its system Plasmodium falciparum. The experiment in a line: Primary screen in NF54 nanoGlo assay, in single point, at 2uM, 72h; a lower Z score goes with more inhibition. The format is functional, Erythrocyte. To be noted: timepoint 72 hour.
As usually defined, the % Inhibition is the change of the read-out against control, counted positive when it falls. As to `CCCn1nc(C)cc1CN(C)C(=O)C[C@H]1CCc2nn(C)c(=O)n2CC1`, the “% Inhibition” value is given as -3% and the Z score came to 0.46.
On to `C[C@@]1(C(=O)NCc2noc(C(N)=O)n2)CCCCO1`, for which the “% Inhibition” value is -1% and the Z score came out at 0.21.
The matching figures for `C[C@@H]1Oc2ccc(C(=O)C3CCN(Cc4cnc(C5CC5)o4)CC3)cc2NC1=O`: -8% and 1.57.
The corresponding values for `CNC(=O)Cc1noc(CC2CCCCCC2)n1` are -6% and 0.65.
The corresponding values for `CCCn1nc(C2CCN(C(=O)OC(C)(C)C)CC2)c2c1CCOC2` are -4% and 0.87.
Regarding `Cc1nc2ccc(N[C@@H](C)c3ccncc3F)cc2s1`, the “% Inhibition” value is recorded as 6% and the Z score was -0.81.
The matching figures for `O=C(Nc1cccc(Oc2c(F)c(F)c(-c3c(F)c(F)c(Oc4cccc(NC(=O)c5ccccc5)c4)c(F)c3F)c(F)c2F)c1)c1ccccc1`: 36% and -4.6.
The matching figures for `Cc1sc(-c2cc(C(F)(F)F)on2)cc1S(=O)(=O)NCc1ccc2c(c1)OCO2`: -2% and 0.38.
The matching figures for `CN1C(=O)N(C)C2(c3ccccc3)N(CC(=O)O)C(=O)NC12c1ccccc1` (stereo unspecified): 7% and -0.85.
For the molecule `CCCn1ncc(C(=O)N2CCC(c3nnc(Cn4cccn4)n3C)CC2)c1C`, the “% Inhibition” value is -5% and the Z score was determined as 0.83.
`COc1cccc(-c2cc3n(n2)CCCN(C(=O)NCc2ccco2)C3)c1`: the “% Inhibition” value is reported as 0% and the Z score is given as 0.
The corresponding values for `Cc1ccc2oc(-c3cccc(C(=O)N4CC[C@@](O)(CO)C4)c3)nc2c1` are -11% and 1.47.
The matching figures for `O=C(NCc1ccncc1)[C@]1(F)CCCN(Cc2ccsc2)C1`: -13% and 1.15.
The corresponding values for `O=C(Cc1ccc(F)cc1)Nc1ccc(N2CCN(C(=O)c3cccc(Br)c3)CC2)nc1` are 2% and -0.31.
With `Cc1nc(CN2CCN(C(=O)C3CCC3)[C@H]3CS(=O)(=O)C[C@H]32)n(C)n1`, the “% Inhibition” value is recorded as -1% and the Z score was found to be 0.17.
The corresponding values for `C[C@H]1CN=C2C=C(N3CCN(C(=O)Nc4ccccc4C(F)(F)F)CC3)N=CN21` are -11% and 1.77.
With `CC[C@H](Nc1nc(-c2ccco2)nc2c1CCNCC2)c1cccnc1`, the “% Inhibition” value is given as -6% and the Z score was determined as 0.93.
As to `Cc1ccc(NC2CC(C)OC2=O)cc1OCC(F)F` (stereo unspecified), the “% Inhibition” value was -9% and the Z score was 1.27.
For `O=C(N[C@@H]1CN(Cc2ccco2)CC[C@@H]1CO)c1cccnc1`, the “% Inhibition” value was determined as 0% and the Z score is -0.06.
In the case of `CCc1ncnc(N(C)CCS(=O)(=O)CC)c1F`, the “% Inhibition” value was -12% and the Z score amounted to 1.1.
In the case of `CCn1nnc(C)c1CN1CCC[C@H]1c1cccs1`, the “% Inhibition” value was 1% and the Z score is listed as -0.16.
With `Cc1cc(COc2ccccc2)oc1C(=O)N[C@H]1C[C@H](c2cc(=O)[nH]cn2)C1`, the “% Inhibition” value was -16% and the Z score worked out at 2.09.
The corresponding values for `Cc1cc(C(=O)N2CCC(c3nc(C4CCOCC4)no3)CC2)nn1C` are -5% and 0.7.
The matching figures for `Cc1cc(CCNC(=O)c2cccnc2)nn1C`: -8% and 1.13.
Take `Cc1ccc(-n2ccnc2)c(C(=O)Nc2cc(F)ccc2C)c1`: the “% Inhibition” value is -3% and the Z score stood at 0.32.
The corresponding values for `Cc1ccnc(N[C@@H](C)c2nccnc2C)c1` are 2% and -0.4.
The matching figures for `Cc1cc(C)nc(CN(C)CC(=O)NC[C@H]2CCCO2)c1`: -6% and 1.14.
Take `COc1ccc(C(=O)N2CCC[C@H]2c2cc(C(C)C)no2)cc1OC`: the “% Inhibition” value is reported as -3% and the Z score is listed as 0.37.
`COc1ccc(CC(=O)NCc2c(C)cc(C)nc2-c2ccc(OC)cc2)cc1`: the “% Inhibition” value was -10% and the Z score is 1.58.
The corresponding values for `COc1ccc(NC(=O)c2ccc3nn(CC(=O)Nc4ccc5c(c4)OCO5)c(=O)n3c2)cc1` are -30% and 2.68.
The matching figures for `CC[C@@H](c1nc(Cn2cnc3ccccc32)no1)N(C)C`: 4% and -0.77.
For `Cc1cccc(OCC(=O)NCC2(N3CCOCC3)CCCCC2)c1C`, the “% Inhibition” value is on record as -9% and the Z score is 0.82.
As to `O=C(COCc1cccnc1)N1CCOC[C@@H]1CC1CCOCC1`, the “% Inhibition” value is recorded as -6% and the Z score was 0.64.
The matching figures for `Cc1cccc(Oc2nc(C)nc(N3CCCC3)c2N)c1`: -7% and 1.33.
The matching figures for `C=CCOc1ccc(C(F)(F)F)cc1C(=O)N1CC[S+]([O-])CC1`: 5% and -0.95.
The corresponding values for `CN(CCN(C)C1CCCC1)CCn1cc(Cl)cn1` are -4% and 0.69.
For `O=C(C=Cc1ccccc1)NO[C@@H]1CCCCO1`, the “% Inhibition” value came out at 1% and the Z score is -0.17.
With `COc1cccc(CN2CC[C@H](NC(=O)c3ccccn3)[C@@H](O)C2)c1OC`, the “% Inhibition” value is on record as -4% and the Z score is reported as 0.78.
On to `CN(Cc1nc(C2CC2)no1)C(=O)c1ccc(NC(=O)C2CCC2)cc1`, for which the “% Inhibition” value is recorded as -7% and the Z score is recorded as 1.15.
The matching figures for `O=C(Nc1nc(C(c2ccccc2)c2ccccc2)cs1)c1ccccc1Cl`: -17% and 2.93.
Turning to `COc1ccc(S(=O)(=O)N2CCCN(C)c3ccc(F)cc32)cn1`, the “% Inhibition” value is 15% and the Z score is -1.89.
The corresponding values for `CC(=O)N1CCN(C(=O)Nc2ccc3cc[nH]c3c2)CC1` are -41% and 4.78.
The matching figures for `O=S1(=O)CCc2cc(-c3cnn(C(F)(F)F)c3)ccc21`: -2% and 0.34.
The matching figures for `CCOc1cnc(-c2noc([C@@H](C)c3c(C)nn(C)c3C)n2)cn1`: -6% and 0.75.
For the molecule `CN(C)C(=O)C1CCC(CNC(=O)CN(C)S(=O)(=O)c2ccccc2)O1` (stereo unspecified), the “% Inhibition” value is reported as -2% and the Z score was determined as 0.31.
Turning to `Cc1cc(C(=O)Nc2ccc(F)cc2)nc2ccnn12`, the “% Inhibition” value is recorded as -2% and the Z score came out at 0.27.
The corresponding values for `Cc1cc(=O)n(Cc2ccccc2F)c2cc(OCC(=O)N3CCOCC3)ccc12` are -13% and 1.89.
The matching figures for `CC1(C)CN(C(=O)c2cnsn2)Cc2cn[nH]c21`: -10% and 2.11.
The matching figures for `CCc1ncc2c(n1)CN(c1ccc3ccccc3n1)C2`: -9% and 1.19.
For the molecule `COc1cccc(C2CN(C(=O)NC(C)C)CC2C(=O)NCc2ccccn2)c1OC` (stereo unspecified), the “% Inhibition” value was -6% and the Z score is given as 0.59.
The corresponding values for `Cc1noc(C)c1CC(=O)N1CCC=Cc2ccccc21` are 0% and 0.01.
The matching figures for `C[C@]1(c2ccccc2)CCC(=O)N(Cc2ncc[nH]2)C1`: -7% and 1.17.
On to `COCC1(O)CN(C(=O)c2oc3c(OC)cc(C)cc3c2C)C1`, for which the “% Inhibition” value is -16% and the Z score came to 2.91.
Turning to `CCc1nc(NC(=O)[C@H](C)NC(=O)c2ccoc2)sc1C`, the “% Inhibition” value turned out to be 5% and the Z score is reported as -0.94.
The corresponding values for `C[C@]1(Cc2cccc3ccccc23)CCCN1Cc1ncccc1C(=O)O` are -7% and 1.21.
The corresponding values for `Cc1ccc(S(=O)(=O)N2CCC[C@H](Oc3ncc(Br)cn3)C2)cc1C` are -9% and 1.47.
Consider `Cc1nn(-c2ncnc3[nH]cnc23)c2c1[C@@H](c1ccccc1)CC(=O)N2`, for which the “% Inhibition” value is -2% and the Z score amounted to 0.29.
As to `O=C(Nc1cccc(CCc2ccncc2)c1)c1csc2c1CCCC2`, the “% Inhibition” value was -5% and the Z score is 0.57.
Take `CN(Cc1ncc[nH]1)C(=O)COc1cc(Cl)c(Cl)cc1Cl`: the “% Inhibition” value is listed as -3% and the Z score worked out at 0.45.
The matching figures for `O=C1N[C@H]2CN(C(=O)c3n[nH]c4c3CCC4)C[C@@H]2OCc2cn(nn2)CCCOc2cc1ccc2Cl`: -11% and 2.03.
The corresponding values for `Cc1ccc(C)c(OCCN(C)C(=O)c2cc3ncc(CCO)cn3n2)c1` are -8% and 1.46.
`CCC(C)(O)Cc1cn(C2CCN(Cc3ccccc3)C2)nn1` (stereo unspecified): the “% Inhibition” value is -16% and the Z score was found to be 2.32.
The matching figures for `CCN(CC)c1nc(N)cc(-c2cccc(C(=O)N3CC(O)C3)c2)n1`: -14% and 1.41.
`CCOC(=O)[C@H]1CCCN(C(=O)c2cnc(-c3ccc(F)cc3)nc2N(C)C(C)C)C1`: the “% Inhibition” value is -8% and the Z score was determined as 1.25.
Consider `O[C@H](COc1ccc2c(c1)OCO2)Cn1nnc(-c2ccccc2)n1`, for which the “% Inhibition” value is -1% and the Z score is recorded as 0.31.
Consider `CN(C)c1ccc(C2NC(=O)NC(O)(C(F)(F)F)C2C(=O)c2ccccc2)cc1` (stereo unspecified), for which the “% Inhibition” value is listed as -21% and the Z score is 2.78.
The matching figures for `CCc1cc(NC(=O)C2CN(C(=O)C3CCCCC3)C2)n(C)n1`: -13% and 2.45.
For `Cc1ccc(Cl)cc1NCC(=O)Nc1cccc(C(=O)NC2CC2)c1`, the “% Inhibition” value was found to be 0% and the Z score is recorded as -0.03.
The corresponding values for `CN1CCC(NC(=O)c2c[nH]c3cccc(Br)c23)CC1` are 5% and -0.66.
The corresponding values for `CNC(=O)[C@@H]1C[C@H](NCc2cc(F)ccc2F)CN1C1Cc2ccccc2C1` are 20% and -2.5.
The corresponding values for `Cc1ccc2c(c1)C[C@@H](C(=O)NCCc1cn[nH]c1)N2` are -18% and 1.91.
Regarding `COc1ccccc1OCC(=O)Nc1ccc2c(c1)nc(CN1CCOCC1)n2C(C)C`, the “% Inhibition” value is -13% and the Z score turned out to be 1.12.
The corresponding values for `CC1CCCCC1OCCNS(=O)(=O)Cc1ccon1` (stereo unspecified) are -9% and 1.11.
The corresponding values for `COC1CCCCCC1NC(=O)NC1CCCCC1OC` (stereo unspecified) are -10% and 1.57.
For the molecule `CCOC(=O)c1cc(C2CC2)nc2c1c(=O)n(Cc1nc(-c3cccc(C)c3)oc1C)c(=O)n2C`, the “% Inhibition” value is -7% and the Z score is recorded as 1.06.
For `CC(=O)N1CCC2(CC1)N=C(c1ccc(C)c(C)c1)C[C@@H](c1ccccc1O)N2`, the “% Inhibition” value is given as -11% and the Z score is 1.2.
The corresponding values for `CN(C)C[C@H]1CN(CC(=O)NCCCc2ccccc2)CCO1` are -8% and 1.41.
As for `CCN(C(=O)[C@H]1CCCN(C(=O)c2ccoc2)C1)c1ccccc1`, the “% Inhibition” value is -11% and the Z score came out at 1.01.
The corresponding values for `N=C1c2ccccc2CN1CC(=O)c1ccc2c(c1)OCCO2` are 0% and -0.06.
On to `CC1CN(C)CC1NS(=O)(=O)c1ccc2c(c1)OCCCO2` (stereo unspecified), for which the “% Inhibition” value was -1% and the Z score was determined as 0.16.
Regarding `O=C(CN(C1CCCCC1)S(=O)(=O)c1ccccc1)N1CCCCCC1`, the “% Inhibition” value is -5% and the Z score is on record as 0.63.
The corresponding values for `CCCCc1nn(CC(=O)N2CCCOCC2)c(=O)n1Cc1ccccc1` are 3% and -0.27.
The matching figures for `CC(=O)Nc1ccc([C@@H](O)[C@H]2COCC(=O)N2CC2CCCCC2)cc1`: 0% and 0.04.
